Data published in paper PMC4222603, “Dual inhibition of HIV-1 replication by integrase-LEDGF allosteric inhibitors is predominant at the post-integration stage” (Retrovirology, 2013).

Key:
IN NL4-3 A128T = target: T1, IN NL4-3 A128T (Human immunodeficiency virus type 1 group M subtype B, UniProt P12497, A1275T); set-up: species or system HIV-1; details: pre-incubation with 100 μM compound
T1 construct: loaded on a Superdex 200 16/600 PG column (for full length IN); made in house

IN-CCD T174I = IN-CCD T174I (Human immunodeficiency virus type 1 group M subtype B, UniProt P12497, F1332K/T1321I); details: SPR, 1.3 μM to 5.0 μM

With `Cc1nc2c(c(-c3ccc4c(c3)CCCO4)c1C(OC(C)(C)C)C(=O)O)CCCC2` (centres unmarked) [Mut101, 2-(tert-butoxy)-2-[4-(3,4-dihydro-2H-1-benzopyran-6-yl)-2-methyl-5,6,7,8-tetrahydroquinolin-3-yl]acetic acid] the “Effect on IN A128T oligomerization state (SEC)” value (IN NL4-3 A128T) was “shift from IN dimer (blue peaks) toward IN tetramer” and the “Binding to mutated IN-CCD T174I” value (IN-CCD T174I) was “no significant binding”.
